Test results taken from article PMC7819943, “Rice protein-binding microarrays: a tool to detect cis-acting elements near promoter regions in rice”.
The list shows a part of the results.

What follows are sequences tested against T1, OsWOX13 (Oryza sativa, UniProt Q5QMM3 1-267) (assay: protein-binding microarray (RPBM); PBS, 2% BSA, 51.3 ng/ul salmon testes DNA, 50 uM zinc acetate, 200 nM TF, 25 C, 1 h; high values mean tight binding). Settings: protein: recombinant; tags: N-terminal polyhistidine and DsRed monomer fusion (pET32a); label: CyDye5-dUTP incorporated in the synthesized complementary strand; 3' TTTTT single-stranded linker to array surface; dsDNA, one strand shown.
T1 sequence: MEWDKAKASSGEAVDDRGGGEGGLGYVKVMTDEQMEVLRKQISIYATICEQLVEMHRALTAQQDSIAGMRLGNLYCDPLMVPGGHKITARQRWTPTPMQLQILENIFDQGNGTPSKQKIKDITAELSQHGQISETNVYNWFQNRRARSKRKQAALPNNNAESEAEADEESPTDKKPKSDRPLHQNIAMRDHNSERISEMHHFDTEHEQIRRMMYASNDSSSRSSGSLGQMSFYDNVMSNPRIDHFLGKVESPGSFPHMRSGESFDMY
Summary of the method: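 The binding signal for each feature is its fluorescence intensity in arbitrary units. An Axon 4000B scanner was used to read a custom Agilent array that had been made double-stranded with Cy5-dUTP primer extension, blocked with 2% BSA, incubated at 25 °C for 1 h with 200 nM protein in PBS, 2% BSA, salmon testes DNA and 50 µM zinc acetate, and washed. The protein was an N-terminal polyhistidine–DsRed transcription factor fusion from E. coli BL21-CodonPlus, purified on Ni–NTA.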
With “TTAATTAGCTCATCATGCATCGATTGCTATCTACAAGCTTCGGAGTCACCTAGTGCAG” the binding signal was 19600 fluorescence intensity (a.u.).
With “TATACTTAATTTGACCCACGGCATCATCGTGGTGTCGTCTCGGAGTCACCTAGTGCAG” the binding signal was 8320 fluorescence intensity (a.u.).
With “GATTGCAATTAAGTGATTTTGTAATTCATATAGTATGGGACGGAGTCACCTAGTGCAG” the binding signal was 10100 fluorescence intensity (a.u.).
For “TAATTGCTTAATTGCTTGATGTAGGGATATTAGAGCAATGCGGAGTCACCTAGTGCAG”, the binding signal was 19100 fluorescence intensity (a.u.).
With “AGTGCTGTAATGACTGTCATTAAGTAGGATTCAGACCAGGCGGAGTCACCTAGTGCAG” the binding signal was 7850 fluorescence intensity (a.u.).
“TGCTGTAATTACTTTTCTGTAATTTGGATTAATCCTTCGCCGGAGTCACCTAGTGCAG” was tested, and the binding signal was 40800 fluorescence intensity (a.u.).
For “CAGATTATAATTGATAGACCGTAGGCTGTAGCTGATACTCCGGAGTCACCTAGTGCAG”, the binding signal was 39400 fluorescence intensity (a.u.).
For “ATAAATTAATTGCCAAGTTGTACTCGGCGGCAACGGCAGCCGGAGTCACCTAGTGCAG”, the binding signal was 36700 fluorescence intensity (a.u.).
“TATAAGTTAAATCAATTTAATCAAGTAAAATAATGGGAGACGGAGTCACCTAGTGCAG” was tested, and the binding signal was 11900 fluorescence intensity (a.u.).
In the case of “GCGGCTGGAATTTTCGAAATTAATCGAGATTGTAGAAATGCGGAGTCACCTAGTGCAG”, the binding signal is reported as 3970 fluorescence intensity (a.u.).
“TTTGTTTTCAATCATGTACAACGTTTGTACGTACGGAAAGCGGAGTCACCTAGTGCAG” was tested, and the binding signal was 14300 fluorescence intensity (a.u.).
“AGTAACTGATATATAAGGATCTAACCACAAGATCATGGTGCGGAGTCACCTAGTGCAG” was tested, and the binding signal was 9100 fluorescence intensity (a.u.).
“TTATAATCACAAGTCAGATTTGTTAATTCCGTTGATCTCGCGGAGTCACCTAGTGCAG” was tested, and the binding signal was 12800 fluorescence intensity (a.u.).
In the case of “CTCATGATTTGGTTAGTAGTAGTTGGTTGGTTAGTTTACGCGGAGTCACCTAGTGCAG”, the binding signal is reported as 14500 fluorescence intensity (a.u.).
With “GAAAACCGACGAGAATTGCCAATTAGGCAGTGCTGACCGACGGAGTCACCTAGTGCAG” the binding signal was 13200 fluorescence intensity (a.u.).
In the case of “ACGATTGATGATTCACCAGAGATAGAGAACAGGGCAAGCACGGAGTCACCTAGTGCAG”, the binding signal is reported as 20700 fluorescence intensity (a.u.).
In the case of “CAGGCTGACAGATGGTGTGCGCCGCCGGAATATTTCGCTACGGAGTCACCTAGTGCAG”, the binding signal is reported as 3360 fluorescence intensity (a.u.).
With “ATACTAATTGGCGACAGATGATTGCACGTCTTATAGCTATCGGAGTCACCTAGTGCAG” the binding signal was 38400 fluorescence intensity (a.u.).
For “TTGTATTGACTGAATGGCGCTCTTGGCTTACTTCACCGTTCGGAGTCACCTAGTGCAG”, the binding signal was 23700 fluorescence intensity (a.u.).
With “GAGCTTTGAATGCCAATCTTCACCACCATAGTAGTACTATCGGAGTCACCTAGTGCAG” the binding signal was 4310 fluorescence intensity (a.u.).
For “GAGTTCGATCGCAGTAATTAACCCCGTGACTAGAAATCTTCGGAGTCACCTAGTGCAG”, the binding signal was 3580 fluorescence intensity (a.u.).
For “TGAGTATTTGATAGGCAGCTAACTGATAACGGACAGCACTCGGAGTCACCTAGTGCAG”, the binding signal was 19800 fluorescence intensity (a.u.).
In the case of “ATAATAGATTTGGTCAAAATTTATCGAAAACCGATCGAAACGGAGTCACCTAGTGCAG”, the binding signal is reported as 13200 fluorescence intensity (a.u.).
With “GTCTTAATTATATTTGATAATCAACTTTATCCTTGGTTTGCGGAGTCACCTAGTGCAG” the binding signal was 50800 fluorescence intensity (a.u.).
For “CCTGATTTGGAGGTTTTGTTGGGTGCAGACCATTCAGGGGCGGAGTCACCTAGTGCAG”, the binding signal was 30200 fluorescence intensity (a.u.).
With “AAGATACGTGATTGAAATCATTCCATTATGGACGACATTGCGGAGTCACCTAGTGCAG” the binding signal was 54000 fluorescence intensity (a.u.).
With “TTCAGGATGATTGACCCGGATGGAAGGAGGAATTCGTTGTCGGAGTCACCTAGTGCAG” the binding signal was 52200 fluorescence intensity (a.u.).
“GAGCAATTTGCTTTGATTAAGGTTCTCTCAACAAGAGGAACGGAGTCACCTAGTGCAG” was tested, and the binding signal was 4760 fluorescence intensity (a.u.).
In the case of “AACTTGATTGCGACCTGTCAACACACAGGTTTTATTATTTCGGAGTCACCTAGTGCAG”, the binding signal is reported as 35600 fluorescence intensity (a.u.).
For “ATCTAAATCGTTGATGATTTTCGGAGCCACCGTGCGAAACCGGAGTCACCTAGTGCAG”, the binding signal was 5020 fluorescence intensity (a.u.).
“TTTATTTCTAACGATGAAATTGACTGAGGGGTAATTTCGTCGGAGTCACCTAGTGCAG” was tested, and the binding signal was 9720 fluorescence intensity (a.u.).
In the case of “CAGTAACTGTTACTGTTGCTACTATATCACTTGATATTCACGGAGTCACCTAGTGCAG”, the binding signal is reported as 3230 fluorescence intensity (a.u.).
With “CAAGCTAATCAGTCTTGGCAAGAAGTATATGCACAGCCTCCGGAGTCACCTAGTGCAG” the binding signal was 3400 fluorescence intensity (a.u.).
With “TTTTAGATCTAAATTTATACCATAATATAAACATCTTTGGCGGAGTCACCTAGTGCAG” the binding signal was 7110 fluorescence intensity (a.u.).
For “ATGTGGCCGATAATTGCTTTGCATGCTGATGGATGTGGCTCGGAGTCACCTAGTGCAG”, the binding signal was 4180 fluorescence intensity (a.u.).
In the case of “TTATGATTTGGACACTTGGTGATTAACTACTGATAATAGTCGGAGTCACCTAGTGCAG”, the binding signal is reported as 17900 fluorescence intensity (a.u.).
With “TTCAACAGATTGATTGTTCTGTTGATTGGTACGCAGAGAACGGAGTCACCTAGTGCAG” the binding signal was 49600 fluorescence intensity (a.u.).
In the case of “CCGTGACAGCGACATTCTTTACCTGCCCAACCCCAACCCCCGGAGTCACCTAGTGCAG”, the binding signal is reported as 8740 fluorescence intensity (a.u.).
For “GAAATTTGACGGAAATTTCCGGACAAATACGGTTATCGACCGGAGTCACCTAGTGCAG”, the binding signal was 7180 fluorescence intensity (a.u.).
With “ACACCAATCAAAATAGAGTTAATTATAAATATACTAGTCGCGGAGTCACCTAGTGCAG” the binding signal was 30300 fluorescence intensity (a.u.).
In the case of “CATAAATTAGAAATGAGCTACAAGTATGACTGGGGATAAACGGAGTCACCTAGTGCAG”, the binding signal is reported as 7010 fluorescence intensity (a.u.).
For “TCACCTAAAATTGACAGATAACTTCTCTAATATCTATAATCGGAGTCACCTAGTGCAG”, the binding signal was 14800 fluorescence intensity (a.u.).
